Measurements reported in PubChem BioAssay AID1345083 (National Center for Advancing Translational Sciences (NCATS), 2018).
Screen size: about 94,000 compounds; about 6,200 (6.6%) were called active. Inconclusive means that the source gave no clear call. Such entries were picked first, then a sample of the others. Calls come from the whole dose curve; as a rule, active = well fitted inhibition curve with a large enough effect; inconclusive = small, poorly fitted or top-dose-only effect; inactive = flat fitted curve, though single readings scatter. Potencies of inconclusive entries are doubtful fits and often do not repeat.

experiment: Cytotoxic Profiling in HEK 293 Cell Line of Diverse Libraries Using Quantitative High-Throughput Screening; settings: HEK 293 viability, ATP luminescence (CellTiter-Glo), 48-72 h; activity change, negative = cytotoxicity: at 115 µM (top of the series) unless noted; series mostly up to 115 µM; note: nearly all actives have a fitted effect of over 60% in size
In short: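 HEK 293 cells seeded at 250 cells/well were exposed to compound for 48 or 72 hr at 37 degree Celsius. Viability taken as ATP content by CellTiter-Glo luminescence.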
% is set by controls: 0 for no effect and ±100 for the full control effect; potency is the fitted concentration of half-maximal effect; tags give direction and shape of the fitted curve.

Row | SMILES | Potency | activity change, negative = cytotoxicity
1 | CCn1cc(CN2CCCC(c3nc(CCOc4cccc(C)c4)no3)C2)cn1 (stereo unspecified) | inconclusive: 89.1 µM [inhibitor, partial curve, poor fit] | –
2 | Cc1ccc(-c2nc(C(=O)N3CCN(c4ccccn4)CC3)no2)cc1 | inconclusive: 89.1 µM [inhibitor, single point] | –
3 | CC1(COc2ccccc2)COc2ccc(C(=O)Nc3ccccc3)cc2N1 (stereo unspecified) | active: 70.8 µM | –
4 | Cc1cc2cc(-c3c(C)noc3C)nc(NC3CCN(C)CC3)c2o1 | active: 100 µM | –
5 | CCC(CC)C(=O)NC[C@H]1O[C@@H](CC(=O)N2CCN(c3ccccn3)CC2)[C@H](O)[C@@H]1O | – | inactive: -12.2% [at 172 µM]
6 | O=C(NC1CCCN(c2ccnc3ccnn23)C1)c1cccc(Cl)c1 (stereo unspecified) | inconclusive: 56.2 µM [inhibitor, partial curve, poor fit] | –
7 | Cc1cccc(C(=O)N2CC[C@H]3C(=O)NCCCCCCN(Cc4ccncc4)[C@@H]3C2)c1 | inconclusive: 31.6 µM [inhibitor, full curve, poor fit] | –
8 | O=C(Cc1ccc(O)cc1)N1CC(CNc2ccccc2)C2(C1)CN(c1ccccc1)C2 (stereo unspecified) | active: 50.1 µM | –
9 | COc1ccc(-n2nc(C)c([C@@H]3C=C[C@@H](NS(=O)(=O)c4cccs4)C3)c2C)cc1 | inconclusive: 63.1 µM [inhibitor, partial curve, poor fit] | –
10 | CCOC(=O)C1=C(C)N=C2SC=C(CC(=O)N3CCCC3)N2C1c1cccc(Cl)c1 (stereo unspecified) | inconclusive: 50.1 µM [inhibitor, partial curve, poor fit] | –
11 | CC(C)NC(=O)O[C@@H]1CC[C@]2(C)C(CC[C@@H](O)[C@H]2CC(=O)NCc2ccc(F)cc2)[C@]1(C)CO (stereo partly specified) | – | inactive: -12.8%
12 | COc1cccc(CN2CC[C@@H]3C(=O)NCCCCCCN(Cc4ccncc4)[C@@H]3C2)c1 | inconclusive: 50.1 µM [inhibitor, partial curve, poor fit] | –
13 | C#CCN1C(=O)[C@]2(C)[C@H](c3ccccc31)[C@@H](C(N)=O)CN2C(=O)c1cccc(OC)c1 | inconclusive: 39.8 µM [inhibitor, single point] | –
14 | O=[S+]([O-])(c1cccs1)N1CCCN(c2ccnc3ccnn23)CC1 | inconclusive: 50.1 µM [inhibitor, partial curve, poor fit] | –
15 | N#Cc1cccc(-c2cn3c(n2)N(C(=O)c2cccnc2)CCC3)c1 | inconclusive: 39.8 µM [inhibitor, partial curve, poor fit] | –
16 | CCn1ccc2oc(C)c(C(=O)N3CCN(c4ccc(Cl)cc4)CC3)c2c1=O | inconclusive: 44.7 µM [inhibitor, partial curve, poor fit] | –
